The values that follow come from the supplement of paper PMC11417369.

± gives the standard deviation of the averaged measurements. This is one part of the list.

The assay has as its system PfAP2-G AP2 domain (GST-tagged). Kind of assay: gcPBM binding intensity (ln(normalized median fluorescence intensity)); higher = stronger DNA binding. A digest of the protocol: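 The binding buffer was 1× PBS containing 1% milk, 0.2 mg/ml BSA, 0.5% salmon testes DNA and 0.03% Triton X-100. In it, GST-tagged P. falciparum DNA-binding domains expressed in E. coli were applied for 1 h to an Agilent 4 × 180k array of primer-extended double-stranded 36-bp intergenic genomic probes plus negative controls. Binding intensity, read with Alexa488 anti-GST antibody and a 488 nm scan, is the highest Masliner-normalised natural-log median intensity across replicate spots of either probe orientation.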
As for “TATATATTTCATAATACACACGAAAAAAAAAAAAAA [CACACA_site8972]”, the “gcPBM binding intensity (ln)” value turned out to be 9.83 ± 0.44.

For the sequence “ATAAAAATAAAATAAGGTACAGACGAAAAAATTGAA [XGTACX_site5097]”, the “gcPBM binding intensity (ln)” value came out at 11.2 ± 0.78.

In the case of “CACAAAAATAGACACACACACATATAAATAAATATA [CACACA_site6598]”, the “gcPBM binding intensity (ln)” value was 9.93 ± 0.13.

In the case of “TAACTCTATTTTTTTGCATGCTGAAGCTATGAGTTT [TGCATGCA_site821]”, the “gcPBM binding intensity (ln)” value amounted to 9.7 ± 0.071.

With “TATGTAGGTAAAAATTGTACTTTTTTTTTAATATTT [XGTACX_site2303]”, the “gcPBM binding intensity (ln)” value was determined as 11.6 ± 0.76.

As to “TGACATAATGTGTGTAGTACATATATCGTTATTTGA [XGTACX_site5152]”, the “gcPBM binding intensity (ln)” value is 11.3 ± 0.8.

As for “TGAATAAATATAAAAGGTACACATATAAATATATAT [XGTACX_site6349]”, the “gcPBM binding intensity (ln)” value stood at 11.2 ± 0.81.

Consider “ATATATATATATATATGTACACATATTATAAAAAAA [XGTACX_site8644]”, for which the “gcPBM binding intensity (ln)” value was 11.5 ± 1.

With “TATATATATAAATACACACACACCGTCCGTGTTAAA [CACACA_site5623]”, the “gcPBM binding intensity (ln)” value stood at 10.3 ± 0.2.

Turning to “ATATATATTATATAGTGTACCTATGTATAATAATAT [XGTACX_site1683]”, the “gcPBM binding intensity (ln)” value stood at 11.1 ± 0.75.

As for “AAAATAGGGATCACGTGTACATATAAAGTGACATAC [XGTACX_site8190]”, the “gcPBM binding intensity (ln)” value came out at 11.5 ± 1.1.

Consider “AATGCATACACATATTGTACTAAGCCATACAACACA [XGTACX_site305]”, for which the “gcPBM binding intensity (ln)” value is 10.8 ± 0.45.

As for “TTCTAGAAAACTGATCGTACAAATAAATATAGACAC [XGTACX_site2808]”, the “gcPBM binding intensity (ln)” value came out at 11 ± 0.57.

For the sequence “ATATATTATAATGATACACACAAGAAATAAAATTAC [CACACA_site3095]”, the “gcPBM binding intensity (ln)” value stood at 10.23 ± 0.042.

Take “TATAAAATAAAAGTAAATATATATATATATATATAT [TGCATGCA_negctrl_site208]”: the “gcPBM binding intensity (ln)” value is 9.92 ± 0.57.

Regarding “ATTATATGTAACACGTGTACCTATTTATGTATGCTT [XGTACX_site5748]”, the “gcPBM binding intensity (ln)” value was 11.3 ± 0.76.

As to “TGATAATTTCATTTTGCATGTGACAATACAAGATGT [TGCATGCA_site203]”, the “gcPBM binding intensity (ln)” value came to 10.1 ± 0.33.

On to “AATGGTTCAACGTAGTGTACGTAATAAATAATAAAT [XGTACX_site8668]”, for which the “gcPBM binding intensity (ln)” value turned out to be 11.8 ± 0.95.

For the sequence “AAATAATATGTAATCAAATTCACCAAACGAAAAAAA [TGCATGCA_negctrl_site33]”, the “gcPBM binding intensity (ln)” value is 9.96 ± 0.11.

Turning to “AATATACAAAATATCACACATATAAAATAATATATA [CACACA_site6067]”, the “gcPBM binding intensity (ln)” value came to 9.665 ± 0.078.

“GATATATAAACATATACACACAAAAACATATTTATA [CACACA_site6734]”: the “gcPBM binding intensity (ln)” value amounted to 10.1 ± 0.19.

With “TATTGCCCGAAACACACACACATATATATATATATA [CACACA_site2491]”, the “gcPBM binding intensity (ln)” value was found to be 10.3 ± 0.38.

As to “GTTTATCACAGCCACGCACACATAATATATGTATAT [CACACA_site3669]”, the “gcPBM binding intensity (ln)” value turned out to be 10.2 ± 0.11.

In the case of “TACATATAAAAGTACACACACACACCCATATATATA [CACACA_site941]”, the “gcPBM binding intensity (ln)” value turned out to be 11.6 ± 1.1.

Consider “ATGGACTTTTATAGTTGTACATACTATGAGAACTTT [XGTACX_site2800]”, for which the “gcPBM binding intensity (ln)” value came out at 11.7 ± 0.85.

On to “TAAAATAAATTGTGCACACATATTTATAAATATGAA [CACACA_site2331]”, for which the “gcPBM binding intensity (ln)” value is 10.5 ± 0.16.

For the sequence “AAATAATTTGTTGACACACACACACCCATACATATA [CACACA_site2285]”, the “gcPBM binding intensity (ln)” value was 10.5 ± 0.34.

As to “TATAATATTTACGACAGTACATATATATATATGTAT [XGTACX_site8332]”, the “gcPBM binding intensity (ln)” value is 10.6 ± 0.47.

“AGATGATATACGTAAACACACAAATAAAAAAAATTT [CACACA_site3327]”: the “gcPBM binding intensity (ln)” value stood at 10.3 ± 0.33.

For the sequence “GAGTTCAGTTTTTGTTGTACTTATTCTTAATATGTC [XGTACX_site6083]”, the “gcPBM binding intensity (ln)” value was determined as 11.4 ± 0.85.

For the sequence “TTTTTTTTTTTTTGATGTACTTATTTAATAAGATAT [XGTACX_site376]”, the “gcPBM binding intensity (ln)” value was 11.4 ± 1.1.

On to “TATATGGCATATTTCACACACACATAATGAATATTA [CACACA_site9181]”, for which the “gcPBM binding intensity (ln)” value worked out at 9.92 ± 0.13.

Turning to “ATATAGCATATAATTTGTACACAGGCCATACCTGAA [XGTACX_site533]”, the “gcPBM binding intensity (ln)” value came to 11.1 ± 0.77.

Turning to “ACAAAAAAATAAGGTGCACACAAAAAAAAAAAAAAA [CACACA_site8171]”, the “gcPBM binding intensity (ln)” value turned out to be 10.6 ± 0.94.

With “AAAAAAAAAACATACACACACATATATATATATATG [CACACA_site1586]”, the “gcPBM binding intensity (ln)” value stood at 10 ± 0.2.

For the sequence “TGTCCTTATTTGCACACACACATATAAGAAATTTAA [CACACA_site7485]”, the “gcPBM binding intensity (ln)” value stood at 10.6 ± 0.37.

As for “ATCCAAAAAATTAATGCATGCGCAAAAAATAGCTTA [TGCATGCA_site615]”, the “gcPBM binding intensity (ln)” value worked out at 9.56 ± 0.24.

As to “TTTGTTTTATCTTATATGCACACGATAAAAAAAAAA [CACACA_site2673]”, the “gcPBM binding intensity (ln)” value was found to be 10.2 ± 0.47.

Turning to “TTTTTTTAAATATACACACACATTTATACATATATA [CACACA_site3400]”, the “gcPBM binding intensity (ln)” value worked out at 10.1 ± 0.14.

For “GTTATACATTTTGATTGTACATAAACCATTTGAGCA [XGTACX_site7283]”, the “gcPBM binding intensity (ln)” value came to 11 ± 0.48.

In the case of “TGAAAAGAAAACACATGTACAAATATATAAATATAA [XGTACX_site6098]”, the “gcPBM binding intensity (ln)” value was 10.8 ± 0.35.

Regarding “TAAGGATGAATCCTTTGTACATATATATATATATAT [XGTACX_site1242]”, the “gcPBM binding intensity (ln)” value stood at 10.7 ± 0.57.

For “AAGAAAAAATAAAAAATAAAAATAAAAAATAAAAAA [TGCATGCA_negctrl_site274]”, the “gcPBM binding intensity (ln)” value was 9.46 ± 0.014.

For the sequence “TATAAACATATCATATGTACATATATTTTTATAAAA [XGTACX_site8882]”, the “gcPBM binding intensity (ln)” value amounted to 11.2 ± 0.64.

For the sequence ATATATTTTTGTAGTGTGCACGTTTATATGGTGAAA, the “gcPBM binding intensity (ln)” value amounted to 10.6 ± 0.5.
